In US12312356B2, “Anthelmintic heterocyclic compounds” (Boehringer Ingelheim Vetmedica GmbH, priority 2020, dated 2025):

Test system: L1 Haemonchus contortus larvae
Test: Screening method to test activity against Haemonchus contortus (larval development L1 to L3, dose response)
Conditions: 96 h, read-out: EC50 value (development of the larvae from L1 to L3)
Excerpt: Screening Method to Test Activity of Compounds Against Haemonchus contortus

For `C=C(C)c1c(C(=O)N[C@H]2CCOc3ccccc32)cnn2c(-c3cc(F)cc(F)c3)c(C)nc12` [Compound 279, 3-(3,5-difluorophenyl)-N-[(4S)-3,4-dihydro-2H-1-benzopyran-4-yl]-2-methyl-8-(prop-1-en-2-yl)imidazo[1,2-b]pyridazine-7-carboxamide], which EC50 is on record?
Its EC50 is 100 to 1000 nM.

For `O=C(N[C@H]1CCOc2ccccc21)c1cnn2c(-c3c(F)cccc3F)cnc2c1` [Compound 174, 3-(2,6-difluorophenyl)-N-[(4S)-3,4-dihydro-2H-1-benzopyran-4-yl]imidazo[1,2-b]pyridazine-7-carboxamide], which EC50 is on record?
The EC50 was 1000 to 10000 nM.

`Cc1nc2c(C(C)C)c(C(=O)N[C@H]3CCOc4ccccc43)cnn2c1C(C)(C)C` [Compound 323, 3-tert-butyl-N-[(4S)-3,4-dihydro-2H-1-benzopyran-4-yl]-8-isopropyl-2-methylimidazo[1,2-b]pyridazine-7-carboxamide] was tested. Which EC50 did it give?
The EC50 was 1000 to 10000 nM.

With `Cc1nc2c(C(C)C)c(C(=O)N[C@H]3CCOc4ccccc43)cnn2c1-c1cc(F)cc(F)c1` [Compound 175, 3-(3,5-difluorophenyl)-N-[(4S)-3,4-dihydro-2H-1-benzopyran-4-yl]-8-isopropyl-2-methylimidazo[1,2-b]pyridazine-7-carboxamide] as the compound, how does the EC50 read?
Its EC50 is 10 to 100 nM.

With `Cc1nc2c(C(C)C)c(NC(=O)[C@H]3CCOc4ccccc43)cnn2c1-c1cc(F)cc(F)c1` [Compound 320, (4S)—N-[3-(3,5-difluorophenyl)-8-isopropyl-2-methylimidazo[1,2-b]pyridazin-7-yl]-3,4-dihydro-2H-1-benzopyran-4-carboxamide] as the compound, how does the EC50 read?
The EC50 was 100 to 1000 nM.

`COc1c(C(=O)N[C@H]2CCOc3ccccc32)cnn2c(-c3cc(Cl)cc(Cl)c3)cnc12` [Compound 394, 3-(3,5-dichlorophenyl)-N-[(4S)-3,4-dihydro-2H-1-benzopyran-4-yl]-8-methoxyimidazo[1,2-b]pyridazine-7-carboxamide] was tested. Which EC50 did it give?
Its EC50 is 1000 to 10000 nM.

How did the EC50 turn out when `Cc1nc2c(C(C)C)c(NC(=O)[C@@H]3CCOc4ccccc43)cnn2c1-c1cc(F)cc(F)c1` [Compound 320-0, (4R)—N-[3-(3,5-difluorophenyl)-8-isopropyl-2-methylimidazo[1,2-b]pyridazin-7-yl]-3,4-dihydro-2H-1-benzopyran-4-carboxamide] was run?
The EC50 was 1000 to 10000 nM.

`Cc1nc2c(C(C)C)c(C(=O)N[C@H]3CCOc4ccccc43)cnn2c1[C@H]1CC[C@@H](C(F)(F)F)CC1` [Compound 326-0, N—((S)-chroman-4-yl)-8-isopropyl-2-methyl-3-((1s,4R)-4-(trifluoromethyl)cyclohexyl)imidazo[1,2-b]pyridazine-7-carboxamide] was tested. Which EC50 did it give?
The EC50 was 10 to 100 nM.

With `Cc1nc2c(C(C)C)c(C(=O)N[C@H]3CCOc4ccccc43)cnn2c1C#N` [Compound 366, 3-cyano-N-[(4S)-3,4-dihydro-2H-1-benzopyran-4-yl]-8-isopropyl-2-methylimidazo[1,2-b]pyridazine-7-carboxamide] as the compound, how does the EC50 read?
The EC50 was 1000 to 10000 nM.

With `Cc1nc2c(C(C)C)c(C(=O)N[C@H]3CCOc4ccccc43)cnn2c1-c1cc(Cl)cc(Cl)c1` [Compound 271, 3-(3,5-dichlorophenyl)-N-[(4S)-3,4-dihydro-2H-1-benzopyran-4-yl]-8-isopropyl-2-methylimidazo[1,2-b]pyridazine-7-carboxamide] as the compound, how does the EC50 read?
Its EC50 is under 10 nM.

Which EC50 does the source give for `Cc1nc2c(C(C)C)c(C(=O)N[C@H]3CCOc4ccccc43)cnn2c1[C@H]1CC[C@H](C(F)(F)F)CC1` [Compound 326, N-[(4S)-3,4-dihydro-2H-1-benzopyran-4-yl]-8-isopropyl-2-methyl-3-[(1r,4r)-4-(trifluoromethyl)cyclohexyl]imidazo[1,2-b]pyridazine-7-carboxamide] here?
Its EC50 is 1000 to 10000 nM.

Which EC50 does the source give for `CC(C)c1c(C(=O)N[C@H]2CCOc3ccccc32)cnn2c(-c3cc(Cl)cc(Cl)c3)cnc12` [Compound 352, 3-(3,5-dichlorophenyl)-N-[(4S)-3,4-dihydro-2H-1-benzopyran-4-yl]-8-isopropylimidazo[1,2-b]pyridazine-7-carboxamide] here?
The EC50 was 100 to 1000 nM.

`Cc1nc2c(C(C)(C)F)c(C(=O)N[C@H]3CCOc4ccccc43)cnn2c1-c1cc(F)cc(F)c1` [Compound 277, 3-(3,5-difluorophenyl)-N-[(4S)-3,4-dihydro-2H-1-benzopyran-4-yl]-8-(2-fluoropropan-2-yl)-2-methylimidazo[1,2-b]pyridazine-7-carboxamide] was tested. Which EC50 did it give?
The EC50 was 10 to 100 nM.

`Cc1nc2c(C(C)(C)C)c(C(=O)N[C@H]3CCOc4ccccc43)cnn2c1-c1cc(Cl)cc(Cl)c1` [Compound 306, 8-tert-butyl-3-(3,5-dichlorophenyl)-N-[(4S)-3,4-dihydro-2H-1-benzopyran-4-yl]-2-methylimidazo[1,2-b]pyridazine-7-carboxamide] was tested. Which EC50 did it give?
Its EC50 is under 10 nM.

With `Cc1nc2c(C(C)C)c(C(=O)N[C@H]3CCOc4ccccc43)cnn2c1CC(C)C` [Compound 323-0, N-[(4S)-3,4-dihydro-2H-1-benzopyran-4-yl]-2-methyl-3-(2-methylpropyl)-8-(propan-2-yl)imidazo[1,2-b]pyridazine-7-carboxamide] as the compound, how does the EC50 read?
The EC50 was 1000 to 10000 nM.

How did the EC50 turn out when `Cc1nc2c(C(C)C)c(C(=O)N[C@H]3CCOc4ccccc43)cnn2c1N1CCCCC1` [Compound 324, N-[(4S)-3,4-dihydro-2H-1-benzopyran-4-yl]-8-isopropyl-2-methyl-3-(piperidin-1-yl)imidazo[1,2-b]pyridazine-7-carboxamide] was run?
Its EC50 is 100 to 1000 nM.

How did the EC50 turn out when `CC(C)c1c(C(=O)N[C@H]2CCOc3ccc(F)cc32)cnn2c(Cl)c(-c3cc(Cl)cc(Cl)c3)nc12` [Compound 304-0, 3-chloro-2-(3,5-dichlorophenyl)-N-[(4S)-6-fluoro-3,4-dihydro-2H-1-benzopyran-4-yl]-8-isopropylimidazo[1,2-b]pyridazine-7-carboxamide] was run?
The EC50 was 1000 to 10000 nM.

With `Cc1nc2c(C(C)C)c(C(=O)N[C@H]3CCOc4ccccc43)cnn2c1C1=CCC(C(F)(F)F)CC1` (stereo partly drawn) [Compound 327, N-[(4S)-3,4-dihydro-2H-1-benzopyran-4-yl]-8-isopropyl-2-methyl-3-[4-(trifluoromethyl)cyclohex-1-en-1-yl]imidazo[1,2-b]pyridazine-7-carboxamide] as the compound, how does the EC50 read?
Its EC50 is 100 to 1000 nM.
